According to PubChem BioAssay AID1645887 (National Center for Advancing Translational Sciences (NCATS), 2021):
Where “and” joins values, the source holds several entries; their conditions need not be identical. Identical values can stand only once. The whole screen tested about 16,000 compounds, of which about 40 (0.2%) were called active. About 1% were inconclusive and are not listed. Calls follow the shape of the dose curve; as a rule, active = well fitted activation curve with a large enough effect; inconclusive = small, poorly fitted or top-dose-only effect, or another doubt; inactive = no such curve, though single readings can be large or run the other way. The list shows a part of the results.

These molecules were tested against Rap guanine nucleotide exchange factor 4 (Homo sapiens) (UniProt Q8WZA2) (assay: Validation qHTS for agonist of cAMP-regulated guanine nucleotide exchange factor 4 (EPAC2)). Conditions: EPAC2 Rap1B BODIPY-GDP exchange, fluorescence; activation: active compounds read high.
Procedure, shortened: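 Signal normalized against 6.5 mM cAMP as agonist control. Mix of EPAC2 (100 nM), RAP1B-BODIPY-GDP (250 nM) and GDP (50 uM) was read kinetically at 480/540 nm, every 5 min over 30 min, after 5 min room-temperature incubation with compound.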
% is scaled to controls: 0 for no effect and ±100 for the full control effect.
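Also: exchange makes BODIPY-GDP fluorescence drop when released from Rap1B; series mostly up to about 150 µM.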

Sequence of UniProt Q8WZA2 (Q8WZA2 whole entry, looked up): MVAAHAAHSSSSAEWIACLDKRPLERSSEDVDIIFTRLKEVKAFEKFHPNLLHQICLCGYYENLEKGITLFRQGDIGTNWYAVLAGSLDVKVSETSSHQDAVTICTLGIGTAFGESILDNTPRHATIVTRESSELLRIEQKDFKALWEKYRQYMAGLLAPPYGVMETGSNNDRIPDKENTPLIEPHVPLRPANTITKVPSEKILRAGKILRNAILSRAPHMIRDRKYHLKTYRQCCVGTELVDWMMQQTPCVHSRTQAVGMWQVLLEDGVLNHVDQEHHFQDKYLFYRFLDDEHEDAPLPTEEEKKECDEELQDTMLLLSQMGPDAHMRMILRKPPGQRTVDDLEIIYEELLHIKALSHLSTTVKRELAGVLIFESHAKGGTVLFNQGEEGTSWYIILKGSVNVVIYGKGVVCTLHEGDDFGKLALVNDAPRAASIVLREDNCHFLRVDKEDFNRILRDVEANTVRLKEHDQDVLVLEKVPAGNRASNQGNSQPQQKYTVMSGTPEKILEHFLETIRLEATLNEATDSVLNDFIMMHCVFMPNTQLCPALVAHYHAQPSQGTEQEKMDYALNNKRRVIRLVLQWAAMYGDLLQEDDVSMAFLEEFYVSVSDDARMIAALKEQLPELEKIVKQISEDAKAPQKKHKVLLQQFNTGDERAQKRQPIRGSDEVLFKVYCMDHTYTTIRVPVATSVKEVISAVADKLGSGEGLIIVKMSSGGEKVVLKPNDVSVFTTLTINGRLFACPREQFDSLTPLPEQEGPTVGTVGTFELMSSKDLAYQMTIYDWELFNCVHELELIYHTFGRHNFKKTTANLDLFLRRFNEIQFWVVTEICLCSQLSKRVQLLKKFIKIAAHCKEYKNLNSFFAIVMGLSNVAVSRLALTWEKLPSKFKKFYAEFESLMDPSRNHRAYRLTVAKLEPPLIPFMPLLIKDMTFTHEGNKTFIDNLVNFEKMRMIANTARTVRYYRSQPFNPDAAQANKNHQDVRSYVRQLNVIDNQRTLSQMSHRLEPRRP

activation, inactive:
Cc1cc(C(=O)NCC2CCC3(CCN(Cc4ccc(-c5ccccc5)cc4)CC3)O2)n(C)n1 (stereo not given) -0.57%
CC(=O)c1ccc[nH]1 -1.71%
O=c1c(-c2ccccc2)coc2cc(O)cc(O)c12 -13.2%
Nc1nc(N)c(N=O)c(OCC2CCCCC2)n1 -8.47%
CO[C@@H]1[C@H](OC(=O)/C=C/C=C/C=C/C=C/C(=O)O)CC[C@]2(CO2)[C@H]1[C@@]1(C)O[C@@H]1CC=C(C)C -34.1%
NC(=O)c1cnccn1 -2.36% and -1.42% and -27%
Cc1c(-c2ccc(Cl)cc2)noc1C1CCN(CCc2ccccc2)CC1 -12.1% and 9.41%
O=c1c(-c2ccc(F)cc2)nc2cnc(Nc3ccccc3)nc2n1C[C@H]1CCCO1 3.28%
NC(C(=O)O)c1cc(O)c(Cl)c(O)c1 (stereo not given) 4.03%
CC(C)(C)CC(C)(C)c1cc(Cc2cc(C(C)(C)CC(C)(C)C)cc(-n3nc4ccccc4n3)c2O)c(O)c(-n2nc3ccccc3n2)c1 -3.67%
Cc1nc2cnc(Oc3cccc(Cl)c3)nc2n(Cc2ccc(F)cc2)c1=O -2.25%
CCn1c(-c2ccccc2F)nc2cc(NC(C)=O)cc(C(=O)N(C)Cc3c(C)nc4ccccn34)c21 -1.69%
CS(=O)(=O)N1CCC[C@@]2(CCN(Cc3nccs3)C2)C1 -15.8%
CC(=O)[O][Al][O]C(C)=O -13.4%
O=C(Nc1ccccc1)N1CC2(CCN(S(=O)(=O)c3ccccc3)CC2)C1 -8.28%
CCCCCCCCOc1ccc(C(=O)c2ccccc2)c(O)c1 -5.77%
CCN(CC)C(=O)[C@]1(c2ccccc2)C[C@@H]1CN -20.9%
NC1CONC1=O (stereo not given) -20.7%
Cc1[nH]c(=O)c(C#N)cc1-c1ccc2nccn2c1 -16.1% and -40.6%
CCCCCCCCCCCC[n+]1ccc(C)c2ccccc21 -20.5%
COc1ccc2[nH]cc(CCNc3cc(-c4cccc(C#N)c4)ncn3)c2c1 4.73%
CN(C)c1ncc2nc(-c3ccc(Cl)cc3)c(=O)n(C[C@H]3CCCO3)c2n1 3.41%
Cc1cc2nccc(C)c2cc1C -10.9%
CC(=O)O[C@H]1C(=O)[C@@]2(C)[C@H]([C@H](OC(=O)c3ccccc3)[C@]3(O)C[C@H](OC(=O)[C@H](O)[C@@H](NC(=O)c4ccccc4)c4ccccc4)C(C)=C1C3(C)C)[C@]1(OC(C)=O)CO[C@@H]1C[C@@H]2O -0.237% and -9.58%
COc1cccc(Cn2c(=O)c(-c3ccccc3)nc3cncnc32)c1 5.45%
COc1ccc(/C=C/C(=O)/C=C/c2ccc(OC)cc2OC)c(OC)c1 -29.5%
C[S+](C)CCC(N)C(=O)O (stereo not given) 4.13%
Cc1ccc2ccccc2n1 -24.8%
COc1cc(=O)n2c(c1C(=O)N(C)Cc1nonc1C)CCN(C(=O)c1ccc(C)c(C)c1)CC2 -14.5%
CC1=C(C(=O)O)N2C(=O)C(NC(=O)C(N)c3ccccc3)C2SC1 (stereo not given) -10.1%
CN(C(Cc1ccc(OS(=O)(=O)c2cccc3cnccc23)cc1)C(=O)N1CCN(c2ccccc2)CC1)S(=O)(=O)c1cccc2cnccc12 (stereo not given) -6.95%
Cc1cnc(CNc2ccnc(-c3cccc(C#N)c3)n2)cn1 -2.78%
COc1ccccc1CN1CCCC2(CCN(C(=O)c3cccn3C)CC2)C1 0.831%
CCCN(CCC)CCc1cccc2c1CC(=O)N2 -23.9% and -20%
N=C(N)c1ccc(N)cc1 -26.6%
CCNc1ncc2nc(CCc3ccccc3)c(=O)n(Cc3ccc(F)cc3)c2n1 5.59%
Cc1noc(C)c1C(=O)N1CCC[C@@]2(CCN(C(=O)Nc3cccc(F)c3)C2)C1 -19.7%
C/C=C/c1ccc(OC)cc1 5.75% and -0.148%
CCCCN=C(N)N=C(N)N -11.6%
CS(=O)(=O)N1CCC2(CCCN(c3ccccn3)C2)CC1 -17.6%
COc1ccc(CN2CCOc3ccc(CN4CCCCC4CO)cc3C2)c(OC)c1 (stereo not given) 5.24%
COc1cccc(Cn2c(=O)cnc3cnc(N4CCN(C)CC4)nc32)c1 -6.07%
Cc1cnc(CNc2nc(-c3ccc(N(C)C)cc3)nc3ccccc23)cn1 11.2%
COc1c(N2C[C@@H]3CCCN[C@H]3C2)c(F)cc2c(=O)c(C(=O)O)cn(C3CC3)c12 -6.61% and 22.3%
CC[C@H](CC[C@@H](C)C1CC[C@H]2[C@@H]3CC=C4C[C@@H](O)CC[C@]4(C)[C@H]3CC[C@]12C)C(C)C (stereo not given in full) -3.23%
COC(=O)/C=C/C(C)=C/C=C/C(C)=C/C=C/C=C(C)/C=C/C=C(C)/C=C/C(=O)O -11.6%
O=C(CCN1Cc2ccccc2OC(c2ccccc2F)C1)N1CCC(N2CCCC(O)C2)CC1 (stereo not given) -6.41%
COc1ccc(Oc2ncc3nc(-c4cn(C)c5ccccc45)c(=O)n(CCC#N)c3n2)cc1 -6.06%
Cc1cnc(CNc2ncncc2-c2ccc(C(=O)N(C)C)cc2)cn1 -7.22%
COC(=O)C[C@](O)(CCCC(C)(C)O)C(=O)O[C@@H]1C(OC)=C[C@]23CCCN2CCc2cc4c(cc2[C@H]13)OCO4 -5.6%
CCCS(=O)(=O)NCc1c(C)ncc2c1CCN(C(=O)c1cccc(C(F)(F)F)c1)C2 -13.6%
Clc1ccc(/C=C/c2ccnc3ccccc23)c(Cl)c1 -25.4%
COc1ccc2cc(CNCc3nonc3C)c(N3CCCC(CO)C3)nc2c1 (stereo not given) 4.89%
CCCCCCCCCCCCCCCCCCc1ccc(C(=O)/C=C/C(=O)O)cc1 -12.9%
COC(=O)C1[C@H]2SC(C)(C)C(C(=O)OC)N2C(=O)N1Cc1ccccc1 (stereo not given in full) -17.5%
Nc1cc(=O)[nH]c(N)n1 -9.92% and -10.9% and -4.27%
O=C(OOC(=O)c1ccccc1)c1ccccc1 -13.5%
N[C@@H](Cc1c[nH]c2ccccc12)C(=O)O -4.16%
O=C(O)c1nc(=O)[nH]c(=O)[nH]1 -3.25%
Oc1ccc(Cl)cc1CN1CCOc2c(O)cc(-c3nc4ccccc4s3)cc2C1 16.6%
O=C(Nc1ccccc1)[C@@]12C[C@@H]1/C(=N/O)c1ccccc1O2 -6.31%
Cc1cc(C)n(CCC(=O)NCC2Cc3cc(Cl)cc(-c4cnccn4)c3O2)n1 (stereo not given) -2.98%
NC(=O)CCCCn1ccc(NC(N)=NCC(F)(F)F)n1 -13.8% and -0.296%
Cc1cnc(CNc2ccnc(-c3ccc(N(C)C)cc3)n2)cn1 -19.4%
CC(O)Cn1cnc2c1c(=O)n(C)c(=O)n2C (stereo not given) -9.81%
NCCCC[C@H](N)C(=O)O -0.0542%
COc1ncc2nc(-c3cccs3)c(=O)n(Cc3ccc(F)cc3)c2n1 4.49%
COc1cccc(Cn2c(=O)c(-c3cn(C)c4ccccc34)nc3cnc(OC)nc32)c1 -7.74%
Cc1ccccc1-c1nc(NC2CCNCC2)c2ccccc2n1 -18%
CC(Oc1ccccc1)C(=O)N[C@@H]1C(=O)N2C(C(=O)O)C(C)(C)S[C@H]12 (stereo not given in full) -8.05%
CC(C)NC[C@@H](O)COc1ccc(CC(N)=O)cc1 -18.6%
NS(=O)(=O)c1cc2c(cc1C(F)(F)F)NCNS2(=O)=O 0.685% and -19.1%
CCNc1ncc2nc(-c3ccccc3)c(=O)n(CCC#N)c2n1 -17.7%
C=C1/C(=C\C=C2/CCC[C@]3(C)[C@@H]([C@H](C)OCCC(C)(C)O)CC[C@@H]23)C[C@@H](O)C[C@@H]1O -17.2%
COC1(C2=NCCN2)COc2ccccc2O1 (stereo not given) -13.3%
O=C(C[n+]1ccccc1)c1cccc([N+](=O)[O-])c1 -12.9%
CO/N=C(\C(=O)N[C@@H]1C(=O)N2C(C(=O)[O-])=C(C[n+]3cccc4c3CCC4)CS[C@H]12)c1csc(N)n1 -11.8%
CCCCCCCC/C=C\CCCCCCCC(N)=O -31.2% and 4.23%
CC(O)(COc1ccccc1)c1ccc2c(c1)CN(Cc1cccc3cccnc13)CCO2 (stereo not given) -12%
COc1ccccc1N1CCN(CCCCNC(=O)c2ccc(-c3ccc(C(C)=O)cc3)cc2)CC1 -2.58% and 12.3%
NC(=O)CCCCC1CCSS1 (stereo not given) -11%
CCOC(=O)C1CCCCN1C(=O)c1ccc(-n2cc(NC(=O)c3cccnc3)cn2)cc1 (stereo not given) -7.49%
CS(=O)(=O)OCCCCOS(C)(=O)=O -26% and -9.31%
COc1cccc(CNC(=O)c2c(OC)cc(=O)n3c2CCN(C(=O)C2CC=CCC2)CC3)c1 (stereo not given) -16%
O=C(/C=C/c1ccc(O)cc1)c1ccc(O)cc1O 2.18% and -7.17% and -18.5%
